{"source": "paper PMC7819943", "about": "“Rice protein-binding microarrays: a tool to detect cis-acting elements near promoter regions in rice”", "note": "The other results are listed elsewhere or left out.", "data": [{"target": "T1, OsWOX13 (Oryza sativa, UniProt Q5QMM3 1-267)", "T1 sequence": "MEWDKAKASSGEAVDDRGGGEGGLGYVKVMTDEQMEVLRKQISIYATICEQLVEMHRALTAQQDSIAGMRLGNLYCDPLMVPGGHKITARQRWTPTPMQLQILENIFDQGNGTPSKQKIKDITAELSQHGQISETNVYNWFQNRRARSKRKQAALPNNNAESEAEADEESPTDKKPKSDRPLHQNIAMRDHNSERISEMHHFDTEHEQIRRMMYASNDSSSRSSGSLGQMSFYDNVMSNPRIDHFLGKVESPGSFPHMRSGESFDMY", "test": "protein-binding microarray (RPBM); PBS, 2% BSA, 51.3 ng/ul salmon testes DNA, 50 uM zinc acetate, 200 nM TF, 25 C, 1 h; high values mean tight binding", "settings": "protein: recombinant; tags: N-terminal polyhistidine and DsRed monomer fusion (pET32a); label: CyDye5-dUTP incorporated in the synthesized complementary strand; 3' TTTTT single-stranded linker to array surface; dsDNA, one strand shown", "summary_of_the_method": "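Transcription factors were made in E. coli BL21-CodonPlus as N-terminal fusions to a polyhistidine tag and DsRed, then purified on Ni–NTA. After primer extension with Cy5-dUTP and blocking with 2% BSA, a custom Agilent array was exposed for 1 h at 25 °C to 200 nM protein in PBS, 2% BSA, salmon testes DNA and 50 µM zinc acetate. Washed arrays were scanned on an Axon 4000B, and the binding signal is per-feature fluorescence intensity in arbitrary units.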", "values": [{"sequence": "GTTATTTCTCCATCTAAGTTTGATTGACCTATATAAAATTCGGAGTCACCTAGTGCAG", "binding signal": "8800 fluorescence intensity (a.u.)"}, {"sequence": "TGTCACATCACATCGATCATTGATTTCACTTTGATTCCTCCGGAGTCACCTAGTGCAG", "binding signal": "5220 fluorescence intensity (a.u.)"}, {"sequence": "ATAGATTACATAGACCCCGGGTGTATATATTTATACCCATCGGAGTCACCTAGTGCAG", "binding signal": "4280 fluorescence intensity (a.u.)"}, {"sequence": "GAAAACAATAACTGCGTTAACCTCGCATTTCTGTACTACGCGGAGTCACCTAGTGCAG", "binding signal": "3630 fluorescence intensity (a.u.)"}, {"sequence": "CATATTAATTGTTAAAGTTGTCATCATCCAAATTGTTATACGGAGTCACCTAGTGCAG", "binding signal": "11100 fluorescence intensity (a.u.)"}, {"sequence": "TAAGGCAGAAAACCAAGGCCTTGACATTTCTTTTAGGACACGGAGTCACCTAGTGCAG", "binding signal": "65000 fluorescence intensity (a.u.)"}, {"sequence": "GTTTGATCTATTATTTGCAAATCTTGTCAGTTGTAGGATTCGGAGTCACCTAGTGCAG", "binding signal": "5640 fluorescence intensity (a.u.)"}, {"sequence": "ACTATAATTTGCTTTGTTTATTTCCTATGATGGTATTAAACGGAGTCACCTAGTGCAG", "binding signal": "10300 fluorescence intensity (a.u.)"}, {"sequence": "AATAATTACTTAAATTTCTTGAATAAGACGAACGGTCAAACGGAGTCACCTAGTGCAG", "binding signal": "29400 fluorescence intensity (a.u.)"}, {"sequence": "ATTAATTATTTTCGTATCATTTGATTTATGTATACATATACGGAGTCACCTAGTGCAG", "binding signal": "9560 fluorescence intensity (a.u.)"}, {"sequence": "AAATTTAGCAATTAATAAATGGGCACATACCGTCCATAAACGGAGTCACCTAGTGCAG", "binding signal": "4240 fluorescence intensity (a.u.)"}, {"sequence": "GAAATTATTTGAAATTTTGACTGATTTTGAATGAATTTGACGGAGTCACCTAGTGCAG", "binding signal": "15200 fluorescence intensity (a.u.)"}, {"sequence": "AGCTAGGTCAATCATGCATGCATGAATATGTGGCCGAGTTCGGAGTCACCTAGTGCAG", "binding signal": "3270 fluorescence intensity (a.u.)"}, {"sequence": "CTGATCAATTAGTACTTTACTTCCTTTATTATTCTTTCCTCGGAGTCACCTAGTGCAG", "binding signal": "17200 fluorescence intensity (a.u.)"}, {"sequence": "CAATGTAATTACACTACGATTGTGCTATAATTACATTTGTCGGAGTCACCTAGTGCAG", "binding signal": "18300 fluorescence intensity (a.u.)"}, {"sequence": "GTGGATAATTAGCGGTAGCTTTTGTCCATTCATGTCTTGGCGGAGTCACCTAGTGCAG", "binding signal": "26200 fluorescence intensity (a.u.)"}, {"sequence": "CTCCAAATTAGTATCCAAACATCCGATGTGACATGGACTTCGGAGTCACCTAGTGCAG", "binding signal": "8670 fluorescence intensity (a.u.)"}, {"sequence": "AGTAATTATATTTTACGACGGAGGAAGAACTAGTAGCTAACGGAGTCACCTAGTGCAG", "binding signal": "6930 fluorescence intensity (a.u.)"}, {"sequence": "CCACCAGATAATCAATCGCATTTTAACGTATCGCATCCCCCGGAGTCACCTAGTGCAG", "binding signal": "8580 fluorescence intensity (a.u.)"}, {"sequence": "ATAAGTGCAAATCAACTTAAACAAATGAGGCATCAGAGCACGGAGTCACCTAGTGCAG", "binding signal": "3420 fluorescence intensity (a.u.)"}, {"sequence": "AAATCTCATCACAATTTACAATTAGTTAACCACTATACTGCGGAGTCACCTAGTGCAG", "binding signal": "6310 fluorescence intensity (a.u.)"}, {"sequence": "AGCAAAATAAATTGCACTCAGTTGTTTGTGGTAGCGCTCTCGGAGTCACCTAGTGCAG", "binding signal": "6860 fluorescence intensity (a.u.)"}, {"sequence": "AACTAATTACATAGTTTGCATGAAAATCGCGAGACAAATCCGGAGTCACCTAGTGCAG", "binding signal": "13700 fluorescence intensity (a.u.)"}, {"sequence": "GTATAACTAATTAAACATGACTGCCAGCTGAAACATTATCCGGAGTCACCTAGTGCAG", "binding signal": "19600 fluorescence intensity (a.u.)"}, {"sequence": "TACATATAGATAGACTGATTGATTGCTTGGCACTGTTAGCCGGAGTCACCTAGTGCAG", "binding signal": "39400 fluorescence intensity (a.u.)"}, {"sequence": "ATATATAACTTTGACAATTACTATTATATACATGCTCCTTCGGAGTCACCTAGTGCAG", "binding signal": "4800 fluorescence intensity (a.u.)"}, {"sequence": "TGGGACTGATGGAATAATAATTTTAAATGAAAGTCAACATCGGAGTCACCTAGTGCAG", "binding signal": "21300 fluorescence intensity (a.u.)"}, {"sequence": "CATAATTATCCCATATTCTTATATCTCTATTCTATGCATTCGGAGTCACCTAGTGCAG", "binding signal": "33200 fluorescence intensity (a.u.)"}, {"sequence": "AAGGATTAGATATGATTCAATCTTTTGGTTCAAAGTTCTTCGGAGTCACCTAGTGCAG", "binding signal": "6590 fluorescence intensity (a.u.)"}, {"sequence": "CCACAATTTAGATAAATATCAATACAATTTATCTATTCGTCGGAGTCACCTAGTGCAG", "binding signal": "4110 fluorescence intensity (a.u.)"}, {"sequence": "TAATCAATTAAGAAATTAATTAATCCTTTGCTCCCTGATTCGGAGTCACCTAGTGCAG", "binding signal": "54400 fluorescence intensity (a.u.)"}, {"sequence": "TTAGATACTGGACATGATTGATAAATTGCTGCTCTGCACGCGGAGTCACCTAGTGCAG", "binding signal": "49500 fluorescence intensity (a.u.)"}, {"sequence": "TGATTAATTAACCGAAAAGTGTGTAAAGCAAATGTTTTGGCGGAGTCACCTAGTGCAG", "binding signal": "15200 fluorescence intensity (a.u.)"}, {"sequence": "GACTAAATTTGTCCGACTTTAGAACAACCTTAACGCCGTGCGGAGTCACCTAGTGCAG", "binding signal": "6420 fluorescence intensity (a.u.)"}, {"sequence": "TGGGCCAAATTGATTTATGGTCTGAATTCACTGATGGAAACGGAGTCACCTAGTGCAG", "binding signal": "24900 fluorescence intensity (a.u.)"}, {"sequence": "AGCTTATAGATTATAATAATCTACTTGTTTGTTCCAGTTTCGGAGTCACCTAGTGCAG", "binding signal": "11500 fluorescence intensity (a.u.)"}, {"sequence": "CATTCTTGCAATTCAACTATTGATTGTTTGATCTTATGGACGGAGTCACCTAGTGCAG", "binding signal": "11900 fluorescence intensity (a.u.)"}, {"sequence": "GATTAATGATAAATATGTGTTTAAAGTTAACGGTGTAATACGGAGTCACCTAGTGCAG", "binding signal": "7190 fluorescence intensity (a.u.)"}, {"sequence": "ACACTGATTAATGCATATGCTAGATTGGGGATGATGGATACGGAGTCACCTAGTGCAG", "binding signal": "36000 fluorescence intensity (a.u.)"}, {"sequence": "GGTGAATTTGACAATGTGATGGCAGGAAATGACATGCCGTCGGAGTCACCTAGTGCAG", "binding signal": "7860 fluorescence intensity (a.u.)"}, {"sequence": "CGAAAGTCTCAGTGCAATCAAATTTGTGCAATCATAAATGCGGAGTCACCTAGTGCAG", "binding signal": "3440 fluorescence intensity (a.u.)"}, {"sequence": "TATCCCAAATTATGATGATCTCGTTTGGTATAATTATGCTCGGAGTCACCTAGTGCAG", "binding signal": "6200 fluorescence intensity (a.u.)"}]}]}
